Results on 34 compounds are retold here after the supplement of paper PMC6609913.

SMILES strings stand for the structures. Counter-ions that a name gives are not always drawn. ± gives the standard deviation of the averaged measurements. Whole data set: some 1,300 compounds, median “normalised cell viability” near 1, cut for the lowest 2% near 0.14. Some of the results follow.

The test has as its system V-C8 (BRCA2-deficient hamster cells). The test is described as follows: normalised cell viability (fraction of plate median); higher = more viable cells (less toxic). To be noted: 5 µM. The method, boiled down: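 Library drugs, held as 10 mM stocks in DMSO, were diluted to 5 μM in 100 μl medium and added to 96-well plates of V-C8 hamster cells, either lacking BRCA2 or with BRCA2 restored, 24 h after seeding. Plates ran for 3 days (screen 1) or 6 days (screen 2), alongside solvent-only wells. Viability came from a resazurin readout, median-plate normalised, as the mean of triplicate wells.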

`CC(C(O)c1ccc(O)cc1)N1CCC(Cc2ccccc2)CC1` (stereo not drawn) [Ifenprodil tartrate]: the normalised cell viability came out at 0.902 ± 0.057 (treatment time: 3 days) and 1.04 ± 0.074 (treatment time: 6 days).

`COC(=O)N/N=C/c1c[n+]([O-])c2ccccc2[n+]1[O-]` [Carbadox]: the normalised cell viability is 0.69 ± 0.18 (treatment time: 3 days) and 0.549 ± 0.029 (treatment time: 6 days).

In the case of `CN(C(=O)CN(CCO)CC(=O)N(C)C(C)(C)Cc1ccccc1)C(C)(C)Cc1ccccc1` [Oxethazaine], the normalised cell viability runs as follows: (treatment time: 3 days) 0.147 ± 0.0044; (treatment time: 6 days) 0.172 ± 0.0031.

On to `Cc1cc(C)nc(NS(=O)(=O)c2ccc(N)cc2)n1` [Sulfamethazine sodium salt], for which the normalised cell viability by setting is: (treatment time: 3 days) 1.08 ± 0.015; (treatment time: 6 days) 1.06 ± 0.27.

Take `CC1(C)O[C@@H]2C[C@H]3[C@@H]4C[C@H](F)C5=CC(=O)C=C[C@]5(C)[C@@]4(F)[C@@H](O)C[C@]3(C)[C@]2(C(=O)CO)O1` [Fluocinolone acetonide]: the normalised cell viability is 0.999 ± 0.018 (treatment time: 3 days) and 1.09 ± 0.028 (treatment time: 6 days).

With `COc1cc(NS(=O)(=O)c2ccc(N)cc2)ncn1` [Sulfamonomethoxine], the normalised cell viability by setting is: (treatment time: 3 days) 1.02 ± 0.057; (treatment time: 6 days) 1.05 ± 0.031.

As to `CC(C)[C@H](N)C(=O)OCCOCn1cnc2c(=O)nc(N)[nH]c21` [Valacyclovir hydrochloride], the normalised cell viability by setting is: (treatment time: 3 days) 1.09 ± 0.069; (treatment time: 6 days) 1.02 ± 0.037.

Take `CN1CCN2c3ncccc3Cc3ccccc3C2C1` (stereo not drawn) [Mirtazapine]: the normalised cell viability (treatment time: 3 days) amounted to 1.05 ± 0.026 and the normalised cell viability (treatment time: 6 days) was 1.06 ± 0.073.

For the compound `CO/N=C(\C(=O)N[C@@H]1C(=O)N2C(C(=O)O)=C(COC(C)=O)CS[C@H]12)c1csc(N)n1` [Cefotaxime sodium salt], the normalised cell viability (treatment time: 3 days) was 1.12 ± 0.052 and the normalised cell viability (treatment time: 6 days) was found to be 1.11 ± 0.095.

In the case of `C[C@]12CC[C@@H]3c4ccc(O)cc4C[C@@H](CCCCCCCCC[S+]([O-])CCCC(F)(F)C(F)(F)F)[C@H]3[C@@H]1CC[C@@H]2O` (stereo partly drawn) [Fulvestrant], the normalised cell viability was determined as 0.606 ± 0.039 (treatment time: 3 days) and 0.6924 ± 0.0034 (treatment time: 6 days).

Consider `CCCCOc1cc(C(=O)OCCN(CC)CC)ccc1N` [Benoxinate hydrochloride], for which the normalised cell viability reads like this: (treatment time: 3 days) 1.19 ± 0.096; (treatment time: 6 days) 1.27 ± 0.042.

With `Clc1ccc2nsnc2c1NC1=NCCN1` [Tizanidine HCl], the normalised cell viability (treatment time: 3 days) was found to be 1.01 ± 0.029 and the normalised cell viability (treatment time: 6 days) came out at 1.02 ± 0.06.

On to `CC(C)Oc1ccc2c(=O)c(-c3ccccc3)coc2c1` [Ipriflavone], for which the normalised cell viability is, setting by setting: (treatment time: 3 days) 0.963 ± 0.18; (treatment time: 6 days) 1.05 ± 0.11.

Regarding `Cc1cc2cc3c(C)cc(=O)oc3c(C)c2o1` [Trioxsalen], the normalised cell viability came to 1.04 ± 0.047 (treatment time: 3 days) and 1.07 ± 0.027 (treatment time: 6 days).

Regarding `CC(=O)Nc1nnc(S(N)(=O)=O)s1` [Acetazolamide], the normalised cell viability was determined as 0.983 ± 0.031 (treatment time: 3 days) and 1.02 ± 0.024 (treatment time: 6 days).

Turning to `CNCC(O)c1ccc(O)c(O)c1` (stereo not drawn) [Racepinephrine HCl], the normalised cell viability stood at 1 ± 0.045 (treatment time: 3 days) and 1.02 ± 0.064 (treatment time: 6 days).

As for `CCOC1O[C@H]([C@@H](COCc2ccccc2)OCc2ccccc2)[C@H](OCc2ccccc2)[C@H]1O` (stereo partly drawn) [Tribenoside], the normalised cell viability by setting is: (treatment time: 3 days) 0.953 ± 0.027; (treatment time: 6 days) 0.81 ± 0.061.

Consider `CC(=O)Nc1c(I)c(C(=O)N[C@H]2C(O)O[C@H](CO)[C@@H](O)[C@@H]2O)c(I)c(N(C)C(C)=O)c1I` (stereo partly drawn) [Metrizamide], for which the normalised cell viability runs as follows: (treatment time: 3 days) 1.08 ± 0.023; (treatment time: 6 days) 1.124 ± 0.011.

With `CCN(CC)CCNC(=O)c1ccc(N)cc1` [Procainamide hydrochloride], the normalised cell viability reads like this: (treatment time: 3 days) 1.14 ± 0.024; (treatment time: 6 days) 1.01 ± 0.048.

As to `CN[C@H]1CC[C@@H](c2ccc(Cl)c(Cl)c2)c2ccccc21` [Sertraline], the normalised cell viability (treatment time: 3 days) came out at 0.594 ± 0.074 and the normalised cell viability (treatment time: 6 days) turned out to be 0.256 ± 0.022.

As for `C[C@@H]1CCC[C@H](C)N1NC(=O)c1ccc(Cl)c(S(N)(=O)=O)c1` [Clopamide], the normalised cell viability is 1.12 ± 0.061 (treatment time: 3 days) and 1.06 ± 0.052 (treatment time: 6 days).

Consider `CC[C@H]1OC(=O)[C@H](C)[C@@H](O[C@H]2C[C@@](C)(OC)[C@@H](O)[C@H](C)O2)[C@H](C)[C@@H](O[C@@H]2O[C@H](C)C[C@H](N(C)C)[C@H]2O)[C@](C)(O)C[C@@H](C)CN(C)[C@H](C)[C@@H](O)[C@]1(C)O` [Azithromycin], for which the normalised cell viability is, setting by setting: (treatment time: 3 days) 1.002 ± 0.0076; (treatment time: 6 days) 1.03 ± 0.02.

For the compound `Cc1ccc(-c2cc(C(F)(F)F)nn2-c2ccc(S(N)(=O)=O)cc2)cc1` [Celecoxib], the normalised cell viability turned out to be 0.999 ± 0.033 (treatment time: 3 days) and 1.04 ± 0.049 (treatment time: 6 days).

In the case of `CC(CNC1CCCCC1)OC(=O)c1ccccc1` (stereo not drawn) [Hexylcaine hydrochloride], the normalised cell viability by setting is: (treatment time: 3 days) 1.06 ± 0.043; (treatment time: 6 days) 1.01 ± 0.033.

Regarding `Nc1ccc(S(=O)(=O)Nc2nccs2)cc1` [Sulfathiazole], the normalised cell viability by setting is: (treatment time: 3 days) 0.983 ± 0.068; (treatment time: 6 days) 1.03 ± 0.05.

For the compound `CC12CC3CC(C)(C1)CC(N)(C3)C2` [Memantine Hydrochloride], the normalised cell viability reads like this: (treatment time: 3 days) 0.94 ± 0.05; (treatment time: 6 days) 1.02 ± 0.032.

With `O=C(Nc1ccc([N+](=O)[O-])cc1Cl)c1cc(Cl)ccc1O` [Niclosamide], the normalised cell viability was determined as 0.124 ± 0.0032 (treatment time: 3 days) and 0.0967 ± 0.0062 (treatment time: 6 days).

Turning to `CCOc1ccc(Cc2nccc3cc(OCC)c(OCC)cc23)cc1OCC` [Ethaverine hydrochloride], the normalised cell viability runs as follows: (treatment time: 3 days) 0.625 ± 0.013; (treatment time: 6 days) 0.534 ± 0.022.

Regarding `C#C[C@]1(O)CC[C@H]2[C@@H]3CCC4=Cc5oncc5C[C@]4(C)[C@H]3CC[C@@]21C` [Danazol], the normalised cell viability turned out to be 1.07 ± 0.035 (treatment time: 3 days) and 0.988 ± 0.025 (treatment time: 6 days).

The compound `CCC[C@@H]1C[C@@H](C(=O)N[C@@H]([C@H]2O[C@H](SC)[C@H](O)[C@@H](O)[C@H]2O)[C@@H](C)O)N(C)C1` [Lincomycin hydrochloride] registered a normalised cell viability (treatment time: 3 days) of 1.03 ± 0.016 and a normalised cell viability (treatment time: 6 days) of 1.12 ± 0.019.

As to `CN1CCCN=C1/C=C/c1cccs1` [Pyrantel tartrate], the normalised cell viability reads like this: (treatment time: 3 days) 1.06 ± 0.019; (treatment time: 6 days) 1.02 ± 0.079.

With `CCN(CC)CCN[C@@H](C(=O)OCCC(C)C)c1ccccc1` [Camylofine chlorhydrate], the normalised cell viability runs as follows: (treatment time: 3 days) 1.07 ± 0.065; (treatment time: 6 days) 0.978 ± 0.027.

Turning to `NNC(=O)c1ccncc1` [Isoniazid], the normalised cell viability (treatment time: 3 days) worked out at 0.974 ± 0.1 and the normalised cell viability (treatment time: 6 days) came out at 1.07 ± 0.074.

Regarding `CC1(C)O[C@@H]2C[C@H]3[C@@H]4C[C@H](F)C5=CC(=O)CC[C@]5(C)[C@H]4[C@@H](O)C[C@]3(C)[C@]2(C(=O)CO)O1` [Flurandrenolide], the normalised cell viability (treatment time: 3 days) was determined as 0.987 ± 0.04 and the normalised cell viability (treatment time: 6 days) stood at 1.06 ± 0.15.
